# Test results: PMC2034485 (Nucleic Acids Research, 2007)
# Molecular target: the molecule itself
# Assay: SEC-MALS
protein,measurement,value
C207F mutant of human Rad18 (natural protein) not shown,stoichiometry N,2
